Results published in patent publication US20250325717A1, “ANTI-NUCLEOPHOSMIN 1 ANTIBODY AND ANTIBODY CONJUGATE COMBINATION THERAPIES” (The Children's Medical Center Corporation, priority 2022, published 2025).

Experiments:
MLL-AF9/Flt3-ITD AML [1] = assay: Efficacy model 3: immunocompromised (NSG) AML mouse model; assay type: in vivo; settings: NSG mice; 5 mg/kg weekly, four doses
Procedure: The immune mediated killing ability of Ab2.2 was assessed using efficacy model 3. In efficacy model 3, NSG mice receiving transplantation of primary murine AML cells were given weekly Ab2.2 treatments and assessed for overall survival (FIG. 24A). The transplanted primary murine cells were MLL-AF9/Flt3-ITD AML. The mouse model used was an immunocompromised AML mouse model (NSG). The control group received 5 mg/kg dose (IgG) and the target group received 5 mg/kg dose (Ab2.2). A total of four doses of Ab2.2 were administered.

[2] = tested on: NPM1 on the cell surface of cancer cells (OCI-AML3 cells); assay: Live cell and fixed/permeabilized cell microscopy of OCI-AML3 cells; assay type: cell-based, human
Procedure: The ability of Ab2.2 to bind to NPM1 on the cell surface of cancer cells (OCI-AML3 cells) was tested using both live cell microscopy and microscopy of fixed and permeabilized cells. Ab2.2 was compared to commercially available NPM1 antibodies. The commercially available NPM1 antibody used was Santa Cruz (SC) Anti-NPM1-AF647. […] Therefore, Ab2.2 detects more cytoplasmic NPM1 in mutant OCI-AML3 cells compared to commercially available NPM1antibodies (FIG. 14).

NPM1c/Flt3-ITD AML = assay: Efficacy model 1: syngeneic NPM1c/Flt3-ITD AML transplantation; assay type: in vivo, mice; settings: 5 mg/kg IP
Procedure: Efficacy of treatment with Ab2.2 was assessed using different models. In efficacy model 1, mice were subjected sub-lethal irradiation, followed by transplantation of primary murine AML cells. The mice receiving the primary murine AML were administered weekly antibody treatments of Ab2.2 at a dose of 5 mg/kg. Administration occurred by IP injection. Weekly bleeds were performed and the overall survival of mice, analysis of bone marrow (BM) and spleen and molecular phenotyping were performed (FIG. 21A). The primary murine cells used were NPM1c/Flt3-ITD AML and a Syngeneic AML mouse model was used. The control group received 5 mg/kg dose (IgG) and the target group received 5 mg/kg dose (Ab2.2). Three doses (1 per week) were administered. […] The survival study ended at day 100 due to protocol, not toxicity or AML recurrence.

MLL-AF9/Flt3-ITD AML [3] = assay: Efficacy model 2: syngeneic MLL-AF9/Flt3-ITD AML transplantation; assay type: in vivo, mice
Procedure: In efficacy model 2, mice were subjected sub-lethal irradiation, followed by transplantation of primary murine AML cells. The mice receiving the primary murine AML was administered weekly antibody treatments of Ab2.2 at a dose of 5 mg/kg. Administration occurred by IP injection. Weekly bleeds were performed and the overall survival of mice, and molecular phenotyping were performed (FIG. 22A). The primary murine cells used for transplantation were MLL-AF9/Flt3-ITD AML. A syngeneic AML mouse model was used. The control group received 5 mg/kg dose (IgG) and the target group received 5 mg/kg dose (Ab2.2). A total of 4 doses of Ab2.2 were administered. Antibody binding was observed using flow cytometry (FIG. 22B). […] Survival was about 20 days in the IgG treated mice, compared to about 55 days in the Ab2.2 treated mice (FIG. 22C). Therefore, Ab2.2 improves overall survival in AML model with lower surface levels of NPM1.
Spleen, lung and liver samples collected three days after the first dose of Ab2.2 treatment were compared between control (IgG) and Ab2.2 treated group. The spleens, lungs and livers of Ab2.2 treated mice all weighed less than the IgG treated mice (FIG. 23B).

[4] = biological target: T1, NPM1 on the cell surface of healthy, non-cancerous, cells (Homo sapiens, UniProt P06748); assay: Flow cytometry of healthy donor bone marrow cells; assay type: cell-based; settings: for cells double positive for CD34+ and Ab2.2: healthy HSCs
T1 construct: from tissue; host or cells: healthy donor bone marrow (CD45+, CD33+, CD34+ cells)
Procedure: The ability of Ab2.2 to bind to NPM1 on the cell surface of healthy, non-cancerous, cells was also tested using flow cytometry. The cells measured for Ab2.2 binding were leukocytes (CD45+ cells), myeloid cells (CD33+ cells), and hematopoietic stem cells (“HSCs”; CD34+ cells). Only 3.78% of cells in Donor 1 were double positive for CD34+ and Ab2.2 (Donor 2 and Donor 3 had less than 3%).

MLL-AF9/Flt3-ITD AML [5] = assay: Efficacy model 2: LSC targeting in secondary recipients; assay type: in vivo, mice
Procedure: Efficacy model 2 was also used to assess the LSC targeting of Ab2.2 in secondary recipients (FIG. 23A). The transplanted primary murine cells were MLL-AF9/Flt3-ITD AML and a syngeneic AML mouse model was used. The control group received 5 mg/kg dose (IgG) and the target group received 5 mg/kg dose (Ab2.2). One dose of Ab2.2 was administered before secondary recipients received transplantation. Secondary recipients in the control group received transplanted cells from IgG treated mouse. The target group received transplanted cells from Ab2.2 treated mouse. The same number of cells were transplanted, and a survival assay, flow cytometry, examination of engraftment and LSC functional measurement were performed. […] WBC count was decreased in Ab2.2 treated mice and PLT was increased (FIG. 23F). […] The spleens of Ab2.2 treated secondary recipients weighed less than the IgG treated mice (FIG. 23H). […] The bone marrow (BM) and peripheral blood (PB) were assessed for percentage (%) of AML. In both the BM and PB there was a reduction in AML % in Ab2.2 treated groups compared to IgG controls (FIG. 23I).

[6] = Ab2.2 effects in sub-lethally irradiated wild type mice; assay type: in vivo, C57BL/6J mice; settings: sub-lethal irradiation; 10 mg/kg IP weekly, four treatments; D1 to D27; vs IgG
Procedure: Wild type mice receiving sub-lethal irradiation were tested for effects of Ab2.2 treatment. WT C57BL/6J mice were subjected to sub-lethal irradiation and four treatments of Ab2.2. Ab2.2 treatments occurred weekly via IP injection and weekly bleeds were performed. Control group received 5 mg/kg of IgG and Ab2.2 treated groups received 10 mg/kg of Ab2.2. Regular blood counts, animal phenotyping and measurement of adverse/toxic effects were performed (FIG. 26A).

[7] = three days after the first dose, vs IgG treated mice
[8] = three healthy donor bone marrow samples

T1 sequence (P06748 whole entry): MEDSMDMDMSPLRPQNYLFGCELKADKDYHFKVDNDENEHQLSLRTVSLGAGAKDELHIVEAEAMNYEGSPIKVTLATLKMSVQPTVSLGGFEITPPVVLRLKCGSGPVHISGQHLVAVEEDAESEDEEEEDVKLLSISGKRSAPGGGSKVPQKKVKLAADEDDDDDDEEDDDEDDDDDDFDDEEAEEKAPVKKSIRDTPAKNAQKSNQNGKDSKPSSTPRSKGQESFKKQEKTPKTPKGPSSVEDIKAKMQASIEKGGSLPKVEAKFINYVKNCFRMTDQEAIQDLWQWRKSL

B1: Ab2.2 (antibody)
heavy: [sequence of about 100 residues not given]WRNNAFDYWGQGTLVTVSS[sequence of human IgG1 constant region not given]
light: SSELTQDPAVSVALGQTVRITCQGDSLRSYYASWYQQKPGQAPVLVIYGKNNRPSGIPDRFSGSSSGNTASLTITGAQAEDEADYYCNSSPRLKHRVVFGGGTKLTVLGQPKAAPSVTLFPPSSEELQANKATLVCLISDFYPGAVTVAWKADSSPVKAGVETTTPSKQSNNKYAASSYLSLTPEQWKSHRSYSCQVTHEGSTVEKTVAPTECS
mean survival (MLL-AF9/Flt3-ITD AML [1]): about 30 days | survival benefit without an intact immune system (MLL-AF9/Flt3-ITD AML [1]): does not provide survival benefit | cell surface staining, live cell microscopy [2]: performs similarly to commercially available NPM1 antibodies | cell surface staining, live cell microscopy ([2]; listed as maAb2): stain surface puncta | hematopoiesis (spleen weight, HGB and HCT levels) (NPM1c/Flt3-ITD AML; three doses (1 per week)): resolves defects in hematopoiesis | tumor burden (total WBC count and qPCR) (NPM1c/Flt3-ITD AML; three doses (1 per week)): reduced tumor burden | overall survival (NPM1c/Flt3-ITD AML; three doses, study ended at day 100): improved the overall survival | Survival (MLL-AF9/Flt3-ITD AML [3]; 5 mg/kg IP weekly, 4 doses): about 55 days | mean survival compared with IgG treated animals (MLL-AF9/Flt3-ITD AML [3]; 5 mg/kg IP weekly, 4 doses, p=0.0027): significantly higher | liver weight (MLL-AF9/Flt3-ITD AML [3]; [7]): weighed less | lung weight (MLL-AF9/Flt3-ITD AML [3]; [7]): weighed less | spleen weight (MLL-AF9/Flt3-ITD AML [3]; [7]): weighed less | cells double positive for CD34+ and Ab2.2 ([4]; Donor 1): 3.78% | cells double positive for CD34+ and Ab2.2 ([4]; Donor 2): less than 3% | cells double positive for CD34+ and Ab2.2 ([4]; Donor 3): less than 3% | binding to CD33+ cells [4, 8]: partially binds | binding to healthy HSCs (CD34+ cells) [4, 8]: little to no binding; also recorded: no observable binding | mean survival of secondary recipients (MLL-AF9/Flt3-ITD AML [5]; cells transplanted from mouse given one 5 mg/kg dose): about 50 days | AML % in bone marrow (BM) (MLL-AF9/Flt3-ITD AML [5]; compared to IgG controls): reduction | AML % in peripheral blood (PB) (MLL-AF9/Flt3-ITD AML [5]; compared to IgG controls): reduction | staining of the stem cell compartment (MLL-AF9/Flt3-ITD AML [5]; flow cytometry, MLL-AF9 model): fractionally better than the bulk tumor | PLT (MLL-AF9/Flt3-ITD AML [5]; secondary recipients): increased | WBC count (MLL-AF9/Flt3-ITD AML [5]; secondary recipients): decreased | WBC over time (MLL-AF9/Flt3-ITD AML [5]; secondary recipients, compared to IgG treated): remain lower | spleen weight (MLL-AF9/Flt3-ITD AML [5]; secondary recipients, vs IgG treated mice): weighed less | HGB levels [6]: no significant difference | PLT levels [6]: no significant difference | WBC count [6]: no significant difference | weight [6]: no significant difference

Entries after “also recorded” stand apart in the source; their conditions may differ. Read-outs that look alike come from different tables or passages of the source.
